{"source": "paper PMC4336329", "about": "(PLoS ONE, 2015)", "note": "Hit rate of the full screen: of about 310,000 compounds, about 2,200 (0.71%) showed an effect of 50% or more. Effects have a minus sign here. The list shows a part of the results."}
{"target": "human ether-à-go-go-related gene (hERG) potassium channel (human, UniProt Q12809)", "sequence (Q12809 whole entry, looked up)": "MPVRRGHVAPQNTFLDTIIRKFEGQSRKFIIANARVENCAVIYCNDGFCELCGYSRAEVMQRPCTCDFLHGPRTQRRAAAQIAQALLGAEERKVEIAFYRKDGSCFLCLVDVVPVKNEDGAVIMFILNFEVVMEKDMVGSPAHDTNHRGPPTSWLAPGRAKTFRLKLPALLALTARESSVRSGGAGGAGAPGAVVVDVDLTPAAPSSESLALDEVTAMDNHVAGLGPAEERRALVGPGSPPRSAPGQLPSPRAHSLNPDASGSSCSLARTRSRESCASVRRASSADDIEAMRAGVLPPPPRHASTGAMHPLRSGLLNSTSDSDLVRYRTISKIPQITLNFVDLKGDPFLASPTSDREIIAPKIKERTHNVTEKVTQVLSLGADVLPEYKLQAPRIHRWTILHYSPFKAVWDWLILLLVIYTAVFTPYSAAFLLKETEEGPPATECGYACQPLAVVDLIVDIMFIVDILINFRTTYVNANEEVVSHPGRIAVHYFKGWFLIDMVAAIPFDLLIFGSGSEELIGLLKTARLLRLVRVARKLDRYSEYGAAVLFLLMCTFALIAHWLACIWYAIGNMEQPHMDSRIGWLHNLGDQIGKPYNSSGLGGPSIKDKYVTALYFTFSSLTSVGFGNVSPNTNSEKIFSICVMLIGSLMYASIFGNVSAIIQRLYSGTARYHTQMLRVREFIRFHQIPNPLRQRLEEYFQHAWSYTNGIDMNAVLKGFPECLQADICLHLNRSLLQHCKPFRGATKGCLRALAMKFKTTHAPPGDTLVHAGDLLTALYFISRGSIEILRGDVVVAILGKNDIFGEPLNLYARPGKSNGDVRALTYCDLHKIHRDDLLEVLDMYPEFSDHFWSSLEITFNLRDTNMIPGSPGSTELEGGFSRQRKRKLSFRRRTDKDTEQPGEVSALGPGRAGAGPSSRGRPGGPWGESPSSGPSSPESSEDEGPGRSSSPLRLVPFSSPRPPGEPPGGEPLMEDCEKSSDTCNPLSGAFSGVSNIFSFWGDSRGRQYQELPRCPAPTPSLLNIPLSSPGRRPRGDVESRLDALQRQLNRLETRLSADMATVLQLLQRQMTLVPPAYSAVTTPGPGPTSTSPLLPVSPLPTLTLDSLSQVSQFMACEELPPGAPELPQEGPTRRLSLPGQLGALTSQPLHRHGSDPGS", "experiment": "primary screen, population patch clamp on CHO cells stably expressing hERG", "units": {"hERG current change (%, negative = inhibition) at 1uM": "%"}}
{"compound": "Cc1c(NC(=O)c2cc(C3CC3)on2)c(=O)n(-c2ccccc2)n1C", "hERG current change (%, negative = inhibition) at 1uM": 6.95}
{"compound": "O=C(Nc1ccn(Cc2ccccc2F)n1)c1ccc(COc2cccc(Br)c2)cc1", "hERG current change (%, negative = inhibition) at 1uM": 5.64}
{"compound": "CC(C)CCn1c(COc2ccccc2)n[nH]c1=S", "hERG current change (%, negative = inhibition) at 1uM": 11}
{"compound": "O=C(COC(=O)C1C2CC3OC(=O)C1C3C2)Nc1ccc(Cl)cc1", "note": "(stereo not drawn)", "hERG current change (%, negative = inhibition) at 1uM": -9.01}
{"compound": "O=C(CSc1nc(O)cc(=O)[nH]1)N1CCCc2ccccc21", "hERG current change (%, negative = inhibition) at 1uM": 21}
{"compound": "Cn1cc(S(=O)(=O)Oc2ccccc2)c(=O)n(C)c1=O", "hERG current change (%, negative = inhibition) at 1uM": 5.66}
{"compound": "Cc1ccc(NC2OC(CO)C(O)C(O)C2O)cc1", "note": "(stereo not drawn)", "hERG current change (%, negative = inhibition) at 1uM": -14.4}
{"compound": "CCCC(C(=O)Nc1cccc(S(=O)(=O)N2CCCC2)c1)c1ccccc1", "note": "(stereo not drawn)", "hERG current change (%, negative = inhibition) at 1uM": -28.3}
{"compound": "CCOc1ccccc1C(=O)NCCCN1CCN(CCCNC(=O)c2ccccc2OCC)CC1", "hERG current change (%, negative = inhibition) at 1uM": -21.6}
{"compound": "Cc1cc(NC(=O)CNC(=O)C2CCCCC2)no1", "hERG current change (%, negative = inhibition) at 1uM": 14.7}
{"compound": "COc1ccc(/C=N/NC(=O)c2[nH]ncc2Br)c(OC)c1", "hERG current change (%, negative = inhibition) at 1uM": 7.35}
{"compound": "O=C(NCCS(=O)(=O)NCc1ccccn1)c1ccccc1", "hERG current change (%, negative = inhibition) at 1uM": 8.81}
{"compound": "CCc1ccc(-c2cc(C(=O)N/N=C/c3ccccn3)[nH]n2)cc1", "hERG current change (%, negative = inhibition) at 1uM": 6.44}
{"compound": "CC1(C)CC(O)(CCNCc2ccc3c(c2)OCO3)CCO1", "note": "(stereo not drawn)", "hERG current change (%, negative = inhibition) at 1uM": -2.79}
{"compound": "CN(C)CCN(C(=O)c1ccc2ccccc2c1)c1nc2ccc(F)cc2s1.Cl", "hERG current change (%, negative = inhibition) at 1uM": 8.81}
{"compound": "COc1ccc(NC(=O)c2cc(C)cc(C)c2)cc1S(=O)(=O)N1CCCCC1", "hERG current change (%, negative = inhibition) at 1uM": 14.9}
{"compound": "CCc1ccccc1NC1Nc2cc(C)nn2S1", "note": "(stereo not drawn)", "hERG current change (%, negative = inhibition) at 1uM": 6.8}
{"compound": "COc1ccc(C(C#N)N2N=C(C)CC2(C)C)cc1OC", "note": "(stereo not drawn)", "hERG current change (%, negative = inhibition) at 1uM": 7.74}
{"compound": "CN(CC(=O)Nc1ccc(C#N)cc1)Cc1ccc(Cl)c(Cl)c1", "hERG current change (%, negative = inhibition) at 1uM": -13.5}
{"compound": "C/C(=N/NC(=O)Cc1cc(=O)[nH][nH]1)c1ccc([N+](=O)[O-])cc1", "hERG current change (%, negative = inhibition) at 1uM": -9.19}
{"compound": "O=c1ccc(Cl)nn1-c1ccccc1", "hERG current change (%, negative = inhibition) at 1uM": 13.5}
{"compound": "O=C(Nc1cccc([N+](=O)[O-])c1)c1cc2ccccc2cc1O", "hERG current change (%, negative = inhibition) at 1uM": 14.2}
{"compound": "O=C(NCc1ccccc1)c1cccc(Br)n1", "hERG current change (%, negative = inhibition) at 1uM": 18.5}
{"compound": "Cn1c(=O)c(=O)n(C)c2cc(S(=O)(=O)N3CCC(N4CCCCC4)CC3)ccc21", "hERG current change (%, negative = inhibition) at 1uM": -2.69}
{"compound": "CCCS(=O)(=O)c1nc(S(=O)(=O)c2ccc(C)cc2)c(NCCCN2CCCC2=O)s1", "hERG current change (%, negative = inhibition) at 1uM": 6.91}
{"compound": "CCCCc1ccc(NC(=O)N[C@H](C(=O)O)C(C)C)cc1", "hERG current change (%, negative = inhibition) at 1uM": 6.8}
{"compound": "CC[C@H](C)[C@H](NC(N)=O)C(=O)NCCc1ccc(Cl)cc1", "hERG current change (%, negative = inhibition) at 1uM": 12}
{"compound": "COc1ccccc1N(C(=O)c1ccncc1)c1nc(-c2ccc([N+](=O)[O-])cc2)cs1", "hERG current change (%, negative = inhibition) at 1uM": 3.47}
{"compound": "C(=N\\N1CCN(Cc2cccc3ccccc23)CC1)/c1ccco1", "hERG current change (%, negative = inhibition) at 1uM": 4.64}
{"compound": "Cn1c(=O)c2c(ncn2CC(=O)NCc2cccnc2)n(C)c1=O", "hERG current change (%, negative = inhibition) at 1uM": 13.2}
{"compound": "Cc1ccc(C2/C(=C(/O)c3ccccc3)C(=O)C(=O)N2CCN2CCOCC2)o1", "note": "(stereo not drawn)", "hERG current change (%, negative = inhibition) at 1uM": -0.845}
{"compound": "CN(C)c1nc(NCc2ccccc2)nc(N/N=C/c2ccc3c(c2)OCO3)n1", "hERG current change (%, negative = inhibition) at 1uM": 9.67}
{"compound": "O=C(c1cccc(Cl)c1)N1CCN(c2ccc(N3CCOCC3)nn2)CC1", "hERG current change (%, negative = inhibition) at 1uM": -6.34}
{"compound": "CC1CC(C(F)F)n2nc(C(=O)O)cc2N1", "note": "(stereo not drawn)", "hERG current change (%, negative = inhibition) at 1uM": -6.31}
{"compound": "COc1ccc(/C=C2\\SC(=O)N(CC(=O)Nc3ccc(O)cc3)C2=O)cc1OC", "hERG current change (%, negative = inhibition) at 1uM": 16.8}
{"compound": "O=C(NNC(=O)c1cccnc1)NC12CC3CC(CC(C3)C1)C2", "hERG current change (%, negative = inhibition) at 1uM": 7.44}
{"compound": "CS(=O)(=O)N1CCc2cc(S(=O)(=O)N3CCCCC3)ccc21", "hERG current change (%, negative = inhibition) at 1uM": 3.18}
{"compound": "COc1ccccc1OCC(=O)NNC(=O)c1cnccn1", "hERG current change (%, negative = inhibition) at 1uM": 13.5}
{"compound": "CCOc1ccc(NC(=O)C2CC(=O)N(c3ccc4c(c3)OCCO4)C2)cc1OCC", "note": "(stereo not drawn)", "hERG current change (%, negative = inhibition) at 1uM": -0.168}
{"compound": "CCCCOC(=O)CNc1nnc(SCC(=O)OCC)[nH]c1=O", "hERG current change (%, negative = inhibition) at 1uM": 17.9}
{"compound": "Cc1ccccc1CSc1nnc(-c2ccco2)n1Cc1ccco1", "hERG current change (%, negative = inhibition) at 1uM": -26.4}
{"compound": "O=P(C(=NCCO)NO)(N1CCOCC1)N1CCOCC1", "hERG current change (%, negative = inhibition) at 1uM": 11.3}
{"compound": "CN(C)C(=O)c1cccn(Cc2ccc(C(F)(F)F)cc2)c1=O", "hERG current change (%, negative = inhibition) at 1uM": 11.4}
{"compound": "Cc1cc(N2CCN(S(=O)(=O)c3ccccc3)CC2)c2ccccc2n1", "hERG current change (%, negative = inhibition) at 1uM": -78.6}
{"compound": "O=C(Oc1ccc(-n2cnnn2)cc1)c1ccccc1", "hERG current change (%, negative = inhibition) at 1uM": 9.59}
{"compound": "Cc1nn(CCCC(=O)NCc2ccco2)c(=O)c2nn(-c3ccccc3)c(C)c12", "hERG current change (%, negative = inhibition) at 1uM": 15.8}
{"compound": "CC1Cc2ccccc2N1c1nc(C2CC2)nc2c1nnn2Cc1ccccc1", "note": "(stereo not drawn)", "hERG current change (%, negative = inhibition) at 1uM": 15}
{"compound": "CCSc1nc2ccccc2n1CC(=O)N1CCOCC1", "hERG current change (%, negative = inhibition) at 1uM": 6}
{"compound": "O=C(NNc1ccc([N+](=O)[O-])cc1)C12CC3CC(CC(C3)C1)C2", "hERG current change (%, negative = inhibition) at 1uM": 18.2}
{"compound": "CCc1cccc(OCC(=O)Nc2ccc(C(=O)O)cc2NC(=O)COc2cccc(CC)c2)c1", "hERG current change (%, negative = inhibition) at 1uM": 23.3}
{"compound": "Cc1ccc(C(c2sc3nc(C)nn3c2O)N2CC(C)OC(C)C2)cc1", "note": "(stereo not drawn)", "hERG current change (%, negative = inhibition) at 1uM": 14.5}
{"compound": "COc1ccccc1CCNC(=O)CSc1ccc(-c2ccco2)nn1", "hERG current change (%, negative = inhibition) at 1uM": 5.98}
{"compound": "CC1Oc2cc3c(-c4c(O)cc(O)c5c(O)c6c(cc45)OC(C)C(C)C6=O)c(O)cc(O)c3c(O)c2C(=O)C1C", "note": "(stereo not drawn)", "hERG current change (%, negative = inhibition) at 1uM": 9.75}
{"compound": "Clc1nnc(NN=C2CCCC2)c2ccccc12", "hERG current change (%, negative = inhibition) at 1uM": 9.68}
{"compound": "CCn1nc(C)cc1C(=O)N1CCCC(C(=O)c2ccccc2SC)C1", "note": "(stereo not drawn)", "hERG current change (%, negative = inhibition) at 1uM": 9.34}
{"compound": "COc1cccc(CNS(=O)(=O)c2cc(-c3cc(C)no3)ccc2C(C)C)c1", "hERG current change (%, negative = inhibition) at 1uM": 3.85}
{"compound": "CCOc1ccc(Nc2nc(Cc3nnc(SCC(=O)c4ccc(C)cc4)o3)cs2)cc1", "hERG current change (%, negative = inhibition) at 1uM": 2.59}
